Out of some 52,000 compounds screened, about 1,700 (3.3%) were called active. Rule as the data show it: active = survival mostly below about 52% (no sharp cut-off); inactive = mostly above about 56%. The list shows a part of the results.

This test concerns Wild type. Briefly: S. aureus survival, RN4220 and DeltatarO strains – OD600, teichoic acid synthesis inhibitors, primary screen (AID 463173). Conditions: S. aureus RN4220 wild type/DeltatarO growth, OD600, 18 h, hits give low values, screened at 18.75 µg/mL (by protocol).
As for `CC1(C)C(=O)NCCN1C(=O)CSc1nccc(-c2ccccc2)n1`, the survival was inactive: 106%.
The figure for `O=S(=O)(Nc1ccc(Br)cc1)c1ccc2nc(-c3ccccc3)[nH]c2c1` is active: -3%.
The value for `Cc1ccc(CCNC(=O)CN2CCN(Cc3ccc(Cl)cc3)C2=O)cc1` was inactive: 76%; that for `O=C(CCC1N=C2c3ccccc3N=C(SCc3cccc(F)c3)N2C1=O)NCc1ccc(F)cc1` (centres undefined) was inactive: 68%; that for `Cc1ccc(S(=O)(=O)Nc2ccc3c(c2)c(C(=O)OC(C)C)c(C)n3S(=O)(=O)c2ccc(C)cc2)cc1` was inactive: 105%.
The value for `COc1ccc(S(=O)(=O)NCCc2cn3ccsc3n2)cc1` was inactive: 82%; that for `CC(=O)c1ccc(NC(=O)c2ccc(CN3C(=O)CCn4nc(C)cc43)cc2)cc1` was inactive: 81%; that for `CCc1ccc(NC(=O)Cn2nnc(C(=O)Nc3cc(C)ccc3OC)c2N)cc1` was inactive: 75%.
In the case of `O=C(Nc1ccccc1Br)N1CCN2CCCCC2C1` (centres undefined), the survival is inactive: 92%.
The value for `Cc1nn2c(=O)cc(COC(=O)c3ccc(F)cc3)nc2s1` was inactive: 73%; that for `CCc1ccc(NC(=O)CN2C(=O)CCSc3ccc(S(=O)(=O)N4CCCC4)cc32)cc1` was inactive: 69%; that for `COc1ccc(C(=O)c2cn(Cc3cccc(C)c3)c3cc4c(cc3c2=O)OCCO4)cc1OC` was inactive: 101%.
With `CC(C)n1c(N2CCN(Cc3ccc(Cl)cc3)CC2)nc2ccccc21`, the survival was inactive: 128%.
Take `Cn1nnnc1SCCCNCc1ccccc1OCc1ccccc1F`: the survival is inactive: 87%.
Consider `COC(=O)c1ccccc1NC(=O)c1cc(=O)c2ccc(C)c(C)c2o1`, for which the survival was inactive: 83%.
The figure for `CC1CN(CCC(=O)Nc2ccc3c(c2)OCO3)CC(C)O1` (centres undefined) is inactive: 113%; for `COc1ccc(CCNC(=O)Cn2ccc3cc(S(=O)(=O)N4CCCCC4)ccc32)cc1OC` it is inactive: 75%; for `Cc1ccc(N(C(=O)c2cccc(C)c2)S(=O)(=O)c2ccc(Cl)cc2)cc1` it is inactive: 65%.
Turning to `CCN(CC)CCNC(=O)Cn1ncc2c3ccccc3n(Cc3ccccc3C)c2c1=O`, the survival was inactive: 103%.
`O=S(=O)(c1ccc2[nH]c3c(c2c1)CCCCC3)N1CCN(c2ccccc2)CC1`: the survival is inactive: 77%.
The value for `COc1cccc(CNC(=O)c2cc(-c3cccc(OC)c3)n[nH]2)c1` was inactive: 74%; that for `COc1ccc(NC(=O)N2CCN(C(=O)C(Cc3ccc(F)cc3)NC(C)=O)CC2)cc1` (centres undefined) was inactive: 113%; that for `CN1CCC(N(Cc2ccco2)C(=O)c2cc3sccc3n2Cc2ccccc2)CC1` was inactive: 109%.
The value for `Cc1ccc(N2CCN(C(=O)CCc3c(C)nc4c(c3C)c(=O)n(C)c(=O)n4C)CC2)c(C)c1` was inactive: 77%.

The values above are taken from PubChem BioAssay AID463173 (ICCB-Longwood Screening Facility, Harvard Medical School, 2010).
